Experimental data as given in PubChem BioAssay AID1030 (National Center for Advancing Translational Sciences (NCATS), 2008).
About 16,000 (7.3%) of roughly 220,000 compounds were called active. Inconclusive means that the source gave no clear call. Such entries were picked first, then a sample of the others. Calls follow the shape of the dose curve; as a rule, active = well fitted inhibition curve with a large enough effect (not every such curve was filed as active); inconclusive = small, poorly fitted or top-dose-only effect, or another doubt; inactive = no such curve, though single readings can be large or run the other way. Where the call is inconclusive, the potency comes from a doubtful curve fit.

molecular target: Aldehyde dehydrogenase 1A1 (Homo sapiens) (UniProt P00352); assay: qHTS Assay for Inhibitors of Aldehyde Dehydrogenase 1 (ALDH1A1); details: Purified ALDH1A1, NADH fluorescence, propionaldehyde substrate; series mostly up to 75.3 µM;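 as to activity, negative = inhibition: plate controls were no enzyme wells and a reference inhibitor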
UniProt P00352, sequence (P00352 whole entry, looked up): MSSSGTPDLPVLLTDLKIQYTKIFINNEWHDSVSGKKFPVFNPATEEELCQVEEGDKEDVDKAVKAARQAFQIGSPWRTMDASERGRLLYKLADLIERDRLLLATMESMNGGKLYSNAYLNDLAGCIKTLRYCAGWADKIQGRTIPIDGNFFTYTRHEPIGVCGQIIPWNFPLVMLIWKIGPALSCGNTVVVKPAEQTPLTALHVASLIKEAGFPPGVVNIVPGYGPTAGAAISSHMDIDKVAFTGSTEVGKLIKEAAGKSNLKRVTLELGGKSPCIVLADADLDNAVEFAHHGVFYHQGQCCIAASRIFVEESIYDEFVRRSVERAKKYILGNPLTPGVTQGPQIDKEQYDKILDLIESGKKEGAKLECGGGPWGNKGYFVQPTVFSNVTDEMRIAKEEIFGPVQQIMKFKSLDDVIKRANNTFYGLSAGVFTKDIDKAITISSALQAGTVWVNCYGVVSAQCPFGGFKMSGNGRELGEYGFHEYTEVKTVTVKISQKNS
Potency is read from the fitted curve at half-maximal effect; tags tell the direction and shape of the fitted curve.

Potency, inconclusive:
Cc1ccc(NC(=O)c2c(NC(=O)CCC(=O)O)sc3c2CCCCC3)cc1 28.2 µM [inhibitor, single point]
COC(=O)Cc1[nH]nc2c1C(c1c[nH]c3ccccc13)C(C#N)=C(N)O2 (configuration not stated) 39.8 µM [inhibitor, single point]
COC(=O)Nc1nnc(/C=C/c2ccc(OC)cc2)s1 35.5 µM [inhibitor, single point]
CCOc1cc(S(=O)(=O)Nc2ccccn2)ccc1F 39.8 µM [inhibitor, single point]
O=C(O)c1cc([N+](=O)[O-])c(NCc2cccnc2)c([N+](=O)[O-])c1 25.1 µM [inhibitor, single point]
CCN(CC)S(=O)(=O)c1ccc(C(=O)NCc2nnc(SCC(=O)OC)n2C)cc1 39.8 µM [inhibitor, single point]
COc1ccc2cc3cc(C(=O)NC(C)C)oc3nc2c1 28.2 µM [inhibitor, partial curve]
COc1ccc(S(=O)(=O)N2CCC(c3cc(-c4cccc5ccccc45)n[nH]3)CC2)cc1 39.8 µM [inhibitor, single point]
CCCCC(CC)CNC(=O)CN(C)S(=O)(=O)c1cccc2nsnc12 (configuration not stated) 6.31 µM [inhibitor, single point]
CCCCc1nc2ccccc2c(NC(=O)CN2CCCC2)c1CCC 25.1 µM [inhibitor, single point]
O=C(NCc1ccc(Cl)cc1)C1CCN(S(=O)(=O)N2CCOCC2)CC1 39.8 µM [inhibitor, single point]
C#Cc1ccc(C(=O)Nc2ccc(N3CCC(C)CC3)c(C(N)=O)c2)cc1 39.8 µM [inhibitor, single point]
CCCC1CCc2c(sc(NC(=O)OCC)c2C#N)C1 (configuration not stated) 25.1 µM [inhibitor, single point]
Cc1cccc(NC(=O)c2nc[nH]c2C(=O)Nc2cccc(C)c2)c1 35.5 µM [inhibitor, single point]
COc1ccc(C(=O)Nc2nc(C)c3cc4c(cc3n2)OCO4)cc1 35.5 µM [inhibitor, single point]
Cc1ccc(NS(=O)(=O)c2ccc(CCC(=O)N3CCCC3)cc2)cc1 1.12 µM [inhibitor, partial curve]
COc1cccc(-c2nc(NCc3ccccc3)c3ccccc3n2)c1 35.5 µM [inhibitor, single point]
COc1nccnc1NS(=O)(=O)c1ccc(NC(=S)NC(=O)/C=C/c2ccc(F)cc2)cc1 39.8 µM [inhibitor, single point]
COc1cc(/C=N/n2cnn(Cc3ccccc3Cl)c2=S)cc(OC)c1OC 31.6 µM [inhibitor, single point]
CC(=O)Nc1ccc(Nc2ncnc3c2cnn3-c2cccc(C)c2)cc1 10 µM [inhibitor, partial curve]
CCCCOC(=O)c1ccc(NC(=O)c2ocnc2C)cc1 20 µM [inhibitor, single point]
CCCCCC(=O)N/N=C(\C)c1ccc(N2CCCCC2)cc1 39.8 µM [inhibitor, single point]
Cc1ccc(N2CCN(C(=O)c3cc(C(=O)c4ccccc4C)c[nH]3)CC2)c(C)c1 12.6 µM [inhibitor, partial curve]
CCN1CCc2c(C#N)c(N3CCCCC3)nc(NCc3ccccc3)c2C1 0.447 µM [inhibitor, partial curve]
COc1cc(CNc2ccc(O)cc2)cc(Br)c1OCc1ccccc1 35.5 µM [inhibitor, single point]
Cc1ccc(CN2C(=O)C3CCCN3c3ccc(C#N)cc32)cc1 (configuration not stated) 22.4 µM [inhibitor, partial curve]
Cc1coc2cc3oc(=O)c4c(c3cc12)CCCC4 25.1 µM [inhibitor, partial curve]
Cn1c(-c2c(N)n(CCCc3ccccc3)c3nc4ccccc4nc23)nc2ccccc21 8.91 µM [inhibitor, single point]
CCSc1nc(=S)n(Cc2ccccc2)c(C)c1C(C)=O 28.2 µM [inhibitor, single point]
COc1ccc(C2C=C(c3ccccc3)Nc3nc(NC(C)=O)nn32)cc1 (configuration not stated) 35.5 µM [inhibitor, single point]
Cc1ccc(C(=O)N/C(=C\c2ccco2)C(=O)NCc2cccnc2)cc1 39.8 µM [inhibitor, single point]
CCn1c(=O)c(C(=O)CN2c3ccccc3CC2C)c(N)n(Cc2ccccc2)c1=O (configuration not stated) 37.7 µM [inhibitor, single point]
CC[N+](C)(C)CCN(Cc1ccc(Cl)cc1)c1ccccn1 39.8 µM [inhibitor, single point]
Cc1ccn2cc(-c3cnoc3C)nc2c1 25.1 µM [inhibitor, single point]
CC1(C)C2CCC(C2)C1(C)NC(=O)CN1CCN(Cc2ccccc2)CC1 (configuration not stated) 22.4 µM [inhibitor, partial curve]
CCn1c(=NC(=O)CSC(C)=O)sc2ccccc21 22.4 µM [inhibitor, single point]
Cc1nc2ccccn2c1C(=O)N=Nc1c(O)n(CCC(C)C)c2ccccc12 35.5 µM [inhibitor, single point]
CCN(CC)S(=O)(=O)c1ccc(-c2nnc3sc4cccc(C)c4n23)cc1 14.1 µM [inhibitor, partial curve]
Cc1ccc(CNC(=O)c2cn(C3CCCCC3)c(=O)c3c2c2ccccc2n3C)o1 31.6 µM [inhibitor, partial curve]
Cc1cccc(S(=O)(=O)Nc2cccc3c2C(=O)c2ccccc2-3)c1 39.8 µM [inhibitor, single point]
CCCCN1Cc2cc(C(=O)c3cc(F)ccc3O)cnc2NC1=O 22.4 µM [inhibitor, single point]
CS(=O)(=O)N1N=C(c2ccc(Br)cc2)CC1c1ccc2c(c1)OCO2 (configuration not stated) 39.8 µM [inhibitor, single point]

Potency, active:
O=C(CCl)Nc1ccc(N2CCCCCC2)cc1 2.24 µM
Cc1ccc2[nH]c3c(c2c1)CN(C(=O)CN1CC(C)OC(C)C1)CC3 (configuration not stated) 11.2 µM
O=C(/C=C/c1ccc(O)cc1)c1ccc(NC2=C(N3CCCCC3)C(=O)c3ccccc3C2=O)cc1 8.91 µM
O=C(Nc1ccc(OC(F)F)c(Cl)c1)C(c1ccccc1)c1ccccc1 14.1 µM
COCCNC(C(=O)Nc1cc(Cl)cc(Cl)c1)c1ccccc1 (configuration not stated) 14.1 µM
CCOC(=O)C1(CCOc2ccccc2)CCN(Cc2cnc(C)s2)CC1 15.8 µM
c1ccc(CC2CCN(C3=Nc4cccc5cccc3c45)CC2)cc1 14.1 µM
CC(=NC1CCCC1)c1c(C)[nH]n(-c2nc3ccccc3s2)c1=O 14.1 µM
Cn1c(SCC(=O)c2ccc3c(c2)OCCO3)nnc1C(F)(F)F 22.4 µM
O=C(COC(=O)/C=C/c1ccco1)Nc1cccc([N+](=O)[O-])c1 25.1 µM
CCOC(=O)C1=NOC2C(=O)N(c3ccc(Cl)cc3Cl)C(=O)C12 (configuration not stated) 0.708 µM
O=C(NCc1ccc2c(c1)OCO2)c1ccc(C2SCC(=O)N2Cc2ccco2)cc1 (configuration not stated) 7.08 µM
Oc1ccc(N2CCN(C(=S)NCCc3ccccc3)CC2)cc1 11.2 µM
Cn1c(N2CCN(C(=O)NCc3ccccc3)CC2)nc2ccccc21 3.98 µM

Potency, inactive:
Cc1c(Cl)cccc1NC(=S)NCc1ccc2c(c1)OCO2
COCCNC(=S)N1CCc2cc(OC)c(OC)cc2C1c1cccs1 (configuration not stated)
Cc1cc(NN)nc(NS(=O)(=O)c2ccccc2)n1
CCN(CCCNC(=O)c1[nH]c(C)c(C(C)=O)c1C)c1ccccc1
O=C(NC(=S)NCCN1CCOCC1)c1ccc(Cl)cc1Cl
O=C(NCc1ccco1)C1CCN(c2nc3ccccc3n2Cc2ccc(F)cc2)CC1
Cc1nc2ccccc2c(=O)n1NC(=O)C1CC1
O=C1CCC2(CC1)NC(=O)N(c1ccccc1)N2
COc1ccc(NC(=O)CN(C)CC(=O)Nc2cccc(S(=O)(=O)N(C)c3ccccc3)c2)cc1
CCN(C(=O)COC(=O)c1ccc(Br)o1)C1CCCCC1
NC(=O)C1(N2CCCCC2)CCN(C(=O)Nc2ccccc2C(F)(F)F)CC1
COc1ccc(-c2coc3ccc(OC4OC(COC(C)=O)C(OC(C)=O)C(OC(C)=O)C4OC(C)=O)cc3c2=O)cc1 (configuration not stated)
COc1ccccc1CNc1cc(-c2ccc(C(=O)N(C)C)cc2)ncn1
COC(=O)c1c(C(=O)OC)c(-c2ccc(Cl)cc2)n2c1CS(=O)(=O)C2
O=C(Nc1cccc(C(F)(F)F)c1)c1cccnc1

activity, negative = inhibition, inactive:
CCN(CC)CCCN1C=C2C(=O)C(C)(OC(=O)C3CCCC3)C(=O)C=C2C=C1c1ccsc1 (configuration not stated) 12.5% [at 13.5 µM]
